Results reported in PMC4336329 (PLoS ONE, 2015).
Screen size: about 310,000 compounds; about 14,000 (4.5%) showed an effect of 50% or more. Effects have a minus sign here. The list shows a part of the results.

Molecular target: human ether-à-go-go-related gene (hERG) potassium channel (human, UniProt Q12809)
Test: primary screen, population patch clamp on CHO cells stably expressing hERG
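Also: peak tail current of the secondary pulse compared with the same well before compound.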

Sequence of human ether-à-go-go-related gene (hERG) potassium channel (Q12809 whole entry, looked up): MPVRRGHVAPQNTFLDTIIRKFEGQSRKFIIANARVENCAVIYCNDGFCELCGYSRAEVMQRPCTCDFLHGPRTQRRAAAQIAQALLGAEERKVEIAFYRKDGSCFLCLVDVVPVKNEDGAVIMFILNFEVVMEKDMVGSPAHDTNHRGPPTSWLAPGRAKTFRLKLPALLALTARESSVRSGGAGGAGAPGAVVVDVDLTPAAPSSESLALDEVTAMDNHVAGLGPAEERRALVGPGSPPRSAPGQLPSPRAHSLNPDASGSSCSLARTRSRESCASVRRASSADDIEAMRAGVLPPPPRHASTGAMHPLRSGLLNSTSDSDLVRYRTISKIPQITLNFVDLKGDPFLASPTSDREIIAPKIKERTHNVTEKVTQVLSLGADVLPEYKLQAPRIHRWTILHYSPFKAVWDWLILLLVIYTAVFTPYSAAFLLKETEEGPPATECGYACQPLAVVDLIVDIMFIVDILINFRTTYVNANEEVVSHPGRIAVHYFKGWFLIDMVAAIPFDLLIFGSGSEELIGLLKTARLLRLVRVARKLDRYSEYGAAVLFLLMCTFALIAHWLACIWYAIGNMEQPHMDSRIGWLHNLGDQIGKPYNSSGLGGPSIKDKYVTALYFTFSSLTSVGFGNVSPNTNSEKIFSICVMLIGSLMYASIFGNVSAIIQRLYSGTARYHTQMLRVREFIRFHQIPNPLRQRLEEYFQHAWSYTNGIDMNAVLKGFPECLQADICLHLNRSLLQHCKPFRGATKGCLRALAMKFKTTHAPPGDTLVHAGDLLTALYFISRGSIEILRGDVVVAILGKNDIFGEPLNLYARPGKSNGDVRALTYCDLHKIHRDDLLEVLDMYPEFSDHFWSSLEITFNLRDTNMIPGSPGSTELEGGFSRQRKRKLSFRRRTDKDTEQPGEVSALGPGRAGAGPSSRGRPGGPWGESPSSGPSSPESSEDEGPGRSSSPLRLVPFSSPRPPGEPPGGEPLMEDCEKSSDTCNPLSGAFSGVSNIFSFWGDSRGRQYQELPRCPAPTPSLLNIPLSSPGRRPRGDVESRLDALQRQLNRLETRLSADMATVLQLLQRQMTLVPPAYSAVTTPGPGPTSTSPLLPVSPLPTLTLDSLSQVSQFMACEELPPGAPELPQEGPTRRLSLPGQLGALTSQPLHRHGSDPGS

Row | Structure (SMILES) | hERG current change (%, negative = inhibition) at 10uM
1 | O=C(NCC1CCCO1)c1ccc(Cl)c(S(=O)(=O)Nc2ccccc2)c1 (stereo not shown) | 2.86%
2 | Cn1c(NCC(O)CO)nc2c1c(=O)n(Cc1ccc(Cl)c(Cl)c1)c(=O)n2C (stereo not shown) | -18.5%
3 | O=C(CN(C(=O)c1csnn1)c1cccc(C(F)(F)F)c1)NCc1ccc(F)cc1 | -12.7%
4 | Cc1nn(Cc2ccc(Cl)cc2Cl)c(C)c1NC(=O)CCl | -60.9%
5 | CC1(C)CC(NC(=O)c2coc(=O)c(Br)c2)CC(C)(C)N1 | 1.43%
6 | C/C=C/C=C\C(=O)Nc1cccc(C2=NOC3(C2)C[C@@H](C(N)=O)N(C(=O)c2cc([N+](=O)[O-])cc([N+](=O)[O-])c2)C3)c1 (stereo partly shown) | 6.27%
7 | COc1ccc(OC)c(S(=O)(=O)n2c([N+](=O)[O-])cnc2C)c1 | 13.9%
8 | CCOC(=O)CCc1c(C)c2ccc(OC3CCCCC3=O)c(C)c2oc1=O (stereo not shown) | -2.38%
9 | CCSc1nnc(NC(=O)CSc2nnc(CNC(=O)c3ccc(OC)c(OC)c3)o2)s1 | 13%
10 | Cc1ccc(NC(=O)c2ccc(NS(=O)(=O)c3ccc4[nH]c(=O)[nH]c4c3)cc2)nc1 | 6.85%
11 | CCOC(=O)c1c(C)[nH]c(C(=O)C(C)OC(=O)c2oc3ccccc3c2COC)c1C (stereo not shown) | 10.7%
12 | Cc1ccc(-n2cc(CNCCCn3ccnc3C)c(-c3ccc(F)cc3)n2)cc1 | -71.7%
13 | O=C(NC1CCCCCC1)c1ccco1 | 19.1%
14 | Cc1cccc(NC(=O)CCNS(=O)(=O)c2cccc3nonc23)c1 | 14.4%
15 | COc1ccc(OC(=O)c2cc3ccccc3o2)cc1 | 18.4%
16 | Clc1ccc2c(c1)C(c1cccs1)=NNC(c1cccnc1)=N2 | -22%
17 | CCCC(=O)Nc1nnc(S(=O)(=O)N(CC)c2ccccc2)s1 | 13.8%
18 | CCCCCC(=O)Nc1cc(N(C)C)nc2ccccc12 | -74.9%
19 | CCOC(=O)c1ccccc1NC(=O)COC(=O)C(CCSC)NC(=O)COc1ccccc1 (stereo not shown) | -29.2%
20 | Cc1ccc(CNC(=O)CCC2CCCN(Cc3ccc4cccc(F)c4n3)C2)o1 (stereo not shown) | -52.1%
21 | O=C(NC(=S)NNC(=O)c1ccccc1[N+](=O)[O-])c1ccccc1 | 11.3%
22 | CC(C)NC(=O)NC(=O)COC(=O)C1(C)CC1(Cl)Cl (stereo not shown) | 0.161%

Row | Structure (SMILES) | hERG current change (%, negative = inhibition) at 10uM
23 | O=C(/N=C1/c2ccccc2CN1c1ccccc1)Nc1ccccc1 | -12.7%
24 | COc1cc2nc(CN3CCN(C(c4ccccc4)c4ccccc4)CC3)[nH]c(=O)c2cc1OC | 1.59%
25 | Cc1ccc(-n2ccc(=O)c(C(=O)O)n2)cc1 | -0.306%
26 | CCCOc1ccc(C(=O)N(Cc2cccs2)C2CCS(=O)(=O)C2)cc1 (stereo not shown) | -8.87%
27 | COc1cccc(C(=O)OCC(=O)NC(C)CCc2ccccc2)c1O (stereo not shown) | -6.36%
28 | COc1ccccc1NC(=O)CCSc1nnnn1C | 14.2%
29 | Cc1ccc(N2C(=O)N3[C@H](c4ccc(F)cc4)[C@@H]4C(=O)N(C5CCCCC5)C(=O)[C@@H]4[C@]3(C)C2=O)cc1 | 6.23%
30 | O=C(CCc1nc(-c2ccccc2)no1)NCc1ccco1 | -0.547%
31 | Cc1ccsc1/C=N/NC(=O)c1ccc2nc[nH]c2c1 | -2.67%
32 | CC(C)(C)OC(=O)N1CCC(c2c(C(=O)O)cnn2-c2ccc(Cl)cc2)CC1 | 7.29%
33 | Cc1ccc(C)n1NC(=O)c1ccco1 | 14.8%
34 | C/C(N)=C(/C#N)C(=O)CSc1nn(-c2ccc(Cl)cc2)c(=S)s1 | 12.9%
35 | Br.CN1CCc2cc(O)c(O)cc2C(c2ccccc2)C1 (stereo not shown) | -13.6%
36 | COc1ccc(NC(=O)CN2C(=O)NC(C)(C3CCCCC3)C2=O)c(OC)c1 (stereo not shown) | -1.05%
37 | CC(=O)NCCC(=O)Nc1cc(S(=O)(=O)N2CCCCC2)ccc1N1CCN(C)CC1 | -9.13%
38 | CC1CCN(C(=O)C2CCN(S(=O)(=O)c3cccc4cccnc34)CC2)CC1 | -0.4%
39 | Cc1ccc(C)c(S(=O)(=O)N2CCN(c3nc(-c4cccnc4)nc4ccccc34)CC2)c1 | 1.45%
40 | COC(=O)c1cc(-c2ccc(OC)c(OC)c2)on1 | -0.0521%
41 | CN1CCN(c2cc(-c3ccccc3)nc3cc(-c4ccc(F)cc4)nn23)CC1 | -14.5%
42 | O=C(NCc1ccc(-c2nc3ccccc3s2)cc1)c1ccco1 | -1.39%
43 | CCCc1cc(=O)[nH]c(SC(C)C(=O)N2c3ccccc3CC2C)n1 (stereo not shown) | -2.63%
44 | FC(F)(F)c1ccc(/C=N/n2c(COc3ccccc3)n[nH]c2=S)cc1 | 24.2%

Row | Structure (SMILES) | hERG current change (%, negative = inhibition) at 10uM
45 | Cc1cc(Nc2ccccc2)n(CCO)n1 | -6.17%
46 | Cc1cc(N2CC(C(=O)O)CC2=O)ccc1Br (stereo not shown) | 3.88%
47 | COc1cc(CNCc2ccccc2Cl)ccc1OCC(=O)NC1CCCCC1 | -29%
48 | CC(=O)N1CCC(C(=O)NCCOc2cccc(C)c2)CC1 | 25.4%
49 | Cc1c(O)c(CN(C)C)cc2c1oc(=O)c1ccccc12 | -31.2%
50 | Cc1ccc(-c2csc3ncn(/N=C/N(C)C)c(=O)c23)o1 | 4.03%
51 | Cc1ccccc1Nc1nc(Nc2ccccc2C)nc(SC2=NCCS2)n1 | -11.2%
52 | COc1ccccc1N(C)S(=O)(=O)c1ccc(Cl)c(C(=O)OCc2c(C)noc2C)c1 | 0.653%
53 | CC(C)(C)c1ccc(C(=O)Nc2ccc(CN3CCS(=O)(=O)CC3)cc2)cc1 | -10.1%
54 | O=S(=O)(O)c1nc2ccccc2n1Cc1ccccc1 | -10.5%
55 | N#Cc1ccc(NC(=O)CN2C(=O)NC(Cc3ccccc3)C2=O)cc1 (stereo not shown) | -57.7%
56 | O=C(Nc1cccc([N+](=O)[O-])c1)Nc1cccs1 | 11.2%
57 | Cc1ccc(CN2CCN(C(=O)c3ccco3)CC2)cc1 | -13.5%
58 | Cc1nn(C)cc1CN(C)C(=O)c1sc2cccc(Cl)c2c1Cl | -12.2%
59 | O=C(N/N=C/C(Cl)=C/c1ccccc1)c1ccco1 | -14%
60 | COc1ccc(/C=C2\SC(=O)N(CCC(=O)N3CCCCC3CCO)C2=O)cc1 (stereo not shown) | 11.5%
61 | Cc1cc(C)nc(SCc2ccc(Br)cc2)n1 | 13.4%
62 | COc1ccc(N2CCN(c3ccc([N+](=O)[O-])cc3Cl)CC2)cc1 | -12.1%
63 | COc1ccc(S(=O)(=O)N2CCN(Cc3ccccc3)CC2)c(C)c1 | -19%
64 | COc1ccccc1N1CCN(S(=O)(=O)c2c(C)ccc3nsnc23)CC1 | -28.3%
65 | CCOc1ccc(NC(=O)CN2C(=O)COc3ccccc32)cc1 | 5.4%
66 | CC(C)(C)NCc1cc2ccccc2[nH]c1=O | -2.18%

Row | Structure (SMILES) | hERG current change (%, negative = inhibition) at 10uM
67 | CC1(C)CC(=O)c2c(O)cc(O)cc2O1 | 5.96%
68 | O=C(NCCc1c[nH]c2ccccc12)/C(=C/c1ccco1)NC(=O)c1ccco1 | -42.5%
69 | CSc1nc2nc(C(F)(F)F)cc(-c3ccccc3)n2n1 | 6.32%
70 | COc1ccc(S(=O)(=O)NCCc2ccccc2)c2cccnc12 | 9.98%
71 | COC(=O)c1ccc(N2CCS(=O)(=O)CC2)cc1 | 30.7%
72 | CC(=O)[C@@]1(O)[C@H](C)CC2C3CC=C4CC(OP(=O)(O)O)CC[C@]4(C)C3CC[C@@]21C (stereo partly shown) | 41.4%
73 | CC(Cc1c[nH]c2ccccc12)NC(=O)C1CCCNC1=O (stereo not shown) | 9.5%
74 | O=C(Nc1ccccc1)NC1CC2CCC(C1)N2 (stereo not shown) | 7.72%
75 | Cc1ccc(CCNC(=O)CN(C)S(=O)(=O)c2ccc3c(c2)c(=O)n(C)c(=O)n3C)cc1 | -11.7%
76 | CCN(c1ccccc1)S(=O)(=O)c1ccc(OC)c(NC(=O)CNCC(C)O)c1.O=C(O)C(=O)O (stereo not shown) | -0.938%
77 | COc1cccc(CNC(=O)c2ccc(NC(=O)C3CCCO3)cc2)c1 (stereo not shown) | -7.25%
78 | CCOc1ccc(C2C3=C(CCCC3=O)Nc3ccc4ncccc4c32)cc1 (stereo not shown) | -47.2%
79 | COc1cccc(C(=O)N2CCN(C(=O)c3cccc(F)c3)CC2)c1 | -0.0938%
80 | O=C(NC1CCS(=O)(=O)C1)C1CCCN(S(=O)(=O)c2ccc(Cl)cc2)C1 (stereo not shown) | -13.9%
81 | Cc1cc(NC(=O)Nc2ccccc2)n(-c2ccccc2)n1 | 0.97%
82 | O=c1[nH]c(=O)n(CCO)c2nnn(Cc3ccccc3)c12 | 13%
83 | CCOc1ccccc1NC(=O)c1ccccc1-c1nc(-c2ccccc2OC)no1 | -35.6%
84 | CC1Oc2ccccc2N(CC(=O)N2CCCCC2)C1=O (stereo not shown) | 5.74%
85 | CC(=O)N1N=C2c3ccccc3CCC2C1c1ccc(F)cc1 (stereo not shown) | 13%
86 | O=C(Cc1c(F)cccc1Cl)Nc1ccccn1 | 13.2%
87 | O=C(CNC(=O)C(c1ccccc1)c1ccccc1)N/N=C/c1cccnc1 | -9.6%
88 | CC1(C)Cc2c(sc3nc4n(-c5ccccc5)c(=O)c(CCC(=O)O)nn4c(=O)c23)CO1 | 12.9%
